Results as given in PubChem BioAssay AID1963576 (National Center for Advancing Translational Sciences (NCATS), 2024).
About 60 (0.1%) of roughly 46,000 compounds were called active. About 3% were inconclusive and are not listed. The call rests on the fitted dose curve; in most records, active means well fitted inhibition curve with a large enough effect; inconclusive means small, poorly fitted or top-dose-only effect; inactive means no such curve, though single readings can be large or run the other way. This is one part of the list.

assay: Primary qHTS assay for Inhibitors of ovarian cancer metastasis using an organotypic tumor microenvironment (TME) model.; further: nearly all actives have a fitted effect of over 65% in size;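 on activity change, negative = inhibition: plate controls were DMSO wells for no effect and tomatine positive control wells for full effect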; details: SKOV3ip1-GFP adhesion/invasion on 3D omental model, fluorescence; series mostly up to 45.8 µM; activity change, negative = inhibition: at the top concentration
Procedure, shortened: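 A 3D layer of primary human omental fibroblasts, mesothelial cells, fibronectin and collagen I, grown 48 hr, received SKOV3ip1-GFP cells in serum-free medium plus compounds at 0.36-46 umol/L. After 2 hr RT and 16 hr 37 C, fixed adherent GFP cells were counted; normalized to DMSO and tomatine.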

Activity change, negative = inhibition, inactive:
Cc1ccc(-n2ncc(C(=O)NCc3ccccn3)c2C2CCN(C(=O)OC(C)(C)C)CC2)c(C)c1 -4.69%, COc1ccc(CNC(=O)CCCn2c(=O)c3cccn3c3ccc(F)cc32)cc1OC -17.7%, Cc1ccccc1Cn1nnc2c(=O)[nH]c(C3CCN(C(=O)c4ccccc4Cl)CC3)nc21 3.4%, COc1ccc(NC(=O)C2CCN(C(=O)N3CCOc4ccccc43)CC2)cc1 0.561%, Cc1ccc2occ(CC(=O)Nc3ccc(S(=O)(=O)N4CCCC(C)C4)cc3)c2c1 (stereo unspecified) -23.6%, COc1ccc(NC(=O)CN2C(=O)CSc3ccc(S(=O)(=O)N(C)C)cc32)cc1Cl 26.2%, COCCCNC(=O)C(C)n1c2ccccc2c2cnn(C)c(=O)c21 (stereo unspecified) 34.4%, COc1ccc(NC(=O)N2CCN(S(=O)(=O)c3ccc4c(ccn4C)c3)CC2)cc1OC -2.14%, CCC1CN(C(=O)NCc2ccccc2)c2cc(C)ccc2O1 (stereo unspecified) 1.14%, COc1ccc(-c2noc(N3CCC(C(=O)Nc4ccc(OC)c(OC)c4)CC3)n2)cc1 -2.32%, CCCSc1nc(-c2ccc(OC)cc2)cc(-c2ccccc2OC)c1C#N 16.4%, COc1ccc(Br)cc1CNC(=O)c1cc(=O)[nH]c2ccc(S(=O)(=O)N3CCCCC3)cc12 8.27%, Cc1cccc(C)c1NC(=O)CN(Cc1ccc(Br)cc1)S(=O)(=O)c1ccccc1 -9.41%, Cc1ccc(CNc2ncnc3c2c(-c2ccccc2)cn3-c2ccccc2)cc1 3.08%, CN(C)[C@@H](CCOc1cccc2ccccc12)c1ccccc1 4.25%, CCOc1ccc(NC(=O)C2CCN(S(=O)(=O)c3c(C)noc3/C=C/c3c(C)cc(C)cc3C)CC2)cc1 10.9%, CCN(CC)c1ccc(NC(=O)c2sc3ccccc3c2Cl)cc1 -2.82%, COc1ccc(OC)c(-c2noc(N3CCN(c4cc(C)ccc4C)CC3)n2)c1 -6.01%, COc1ccc(OC)c(CCNC(=O)Cn2ccc3cc(S(=O)(=O)N4CCCCC4)ccc32)c1 8.21%, CCCC(CCC)C(=O)O 16.4%, CN(C)CCCC1(c2ccc(F)cc2)OCc2cc(C#N)ccc21 (stereo unspecified) 11%, COc1ccc(NC(=O)C(Cc2ccccc2)NS(=O)(=O)c2ccc3c(c2)CCN3C(C)=O)cc1 (stereo unspecified) 9.08%, CCOC(=O)c1cc(OC(=O)c2ccc(OC)cc2)n(-c2ccccc2)n1 -5.24%, Cc1ccc(N(C)S(=O)(=O)c2nnc(NC(=O)CC(C)C)s2)cc1 -14.3%, CCOc1ccc(CNC(=O)Cn2ccc3cc(S(=O)(=O)N4CCCCCC4)ccc32)cc1 5.44%, COc1ccc(-n2cc(C(=O)Nc3cc(F)ccc3F)c3ccccc3c2=O)cc1 -4.91%, O=C(Nc1ccc(F)cc1F)c1ccc2c(c1)CCN2S(=O)(=O)c1ccc(Cl)cc1 2.94%, CCOC(=O)c1cc2c(=O)n3ccccc3nc2n(C)c1=NC(=O)c1c(-c2ccccc2Cl)noc1C 0.974%, Cc1ccc(NC(=O)Cn2c(=O)ccc3cc(S(=O)(=O)N4CCC(C)CC4)ccc32)c(C)c1 8.48%, COc1cc(-c2cc3n(C)c(C)c(CCC(=O)NCc4ccccc4)c(=O)n3n2)cc(OC)c1OC -4.9%, COc1ccc2oc(=O)c(C(=O)Nc3cccc(C(=O)O)c3)cc2c1 5.96%, COc1cccc(CNC(=O)C2CCN(Cc3cc4ccccc4n3Cc3ccc(C)cc3)CC2)c1 -8.55%, COc1ccc(NC(=O)CC2C(=O)N(c3ccccc3)C(=O)N2C2CCCCC2)cc1 (stereo unspecified) 60.3%, COc1ccccc1CNC(=O)c1cc2cccc3c2n1CC(C)S3 (stereo unspecified) -12.1%, CCOC(=O)c1nnn(CC(=O)Nc2cc(C)cc(C)c2)c1C(=O)OCC 3.5%, COc1ccc(CCNS(=O)(=O)c2ccc(N3CCCCS3(=O)=O)cc2)cc1OC 4.12%, Cc1nc2c(-c3ccccc3)c(C)nn2c(C)c1CCC(=O)NCc1ccc(Cl)cc1 -3.56%, Cc1ccc(CNC(=O)CCCN2C(=O)CCn3nc(-c4cn(C)c5ccccc45)cc32)cc1 3.31%, Cc1ccc(Cn2c(CCCNC(=O)c3ccco3)nc3ccccc32)cc1 9.9%, CCc1ccc(NC(=O)N2c3ccccc3Sc3ccccc32)cc1 -5.01%, CCN(Cc1ccccc1)S(=O)(=O)c1ccc2c(c1)CCCN2C(C)=O 1.1%, Cc1ccc(C)c(Cn2cnc3c(cnn3-c3ccc(F)cc3)c2=O)c1 14.6%, Cc1ccc(-c2c(C(=O)NCc3ccc(F)cc3)oc(=O)c3ccccc23)cc1 56.5%, CC1CCN(C(=O)CN2c3ccc(C(C)C)cc3-c3ccccc3S2(=O)=O)CC1 -14.3%, Cc1cc(-c2ccccc2)n2nc(-c3cccc(Br)c3)cc2n1 -8.08%, Cc1ccc2cccc(NC(=O)c3ccc(-c4cccc(Cl)c4Cl)o3)c2n1 12.1%, Cc1ccccc1NC(=O)Cn1c(=O)n(Cc2ccc3c(c2)OCO3)c(=O)c2ccc(C(=O)NC3CCCCC3)cc21 -1.31%, CC(=O)c1cccc(NC(=O)c2oc(=O)c3ccccc3c2-c2ccccc2)c1 -5.29%, CC(C)CN(CCNC(=O)c1cn(C)c2ccc(S(=O)(=O)N3CCOCC3)cc2c1=O)CC(C)C -5.77%, COc1ccc(N2CCN(C(=O)CCC(=O)NNc3nc4ccccc4c4nc(C)nn34)CC2)cc1 1.5%, Cc1ccc(C)c(N2CCN(C(=O)c3ccc(Nc4nc5ccccc5n5nnnc45)cc3)CC2)c1 12.7%, CCC(=O)N1CCc2cc(S(=O)(=O)CCC(=O)N3CCN(c4cccc(Cl)c4)CC3)ccc21 -13.6%, CSc1ccc(C(=O)Nc2ccc(-c3nc4ccccc4s3)c(O)c2)cc1 -17.9%, O=C(NCc1ccc(F)cc1)C1CCCCN1S(=O)(=O)c1ccc(F)cc1 (stereo unspecified) 0.469%, COc1cc(OC)c(NC(=O)Cn2c(=O)cc(C)c3c(C)nn(-c4ccc(C)cc4)c32)cc1Cl 0.987%, CSc1ccc(-c2nc3c(C)cccn3c2Nc2ccc3c(c2)OCCO3)cc1 -3.74%, CCc1ccc(NC(=O)c2ccc3nc(C(C)C)oc3c2)cc1 2.8%, CCOC(=O)c1cc(C)n(CC2CCC(C(=O)Nc3ccc(C)cc3)CC2)c1C (stereo unspecified) -7.78%, Cc1ccc(OCc2nnc(SCC(=O)Nc3ccccc3C(C)C)o2)cc1 7.01%, COC(=O)Cn1ccc2cc(S(=O)(=O)N3CCCCCC3)ccc21 0.81%, CCC1CCc2nc3sc(C(=O)Nc4ccc(C)cc4C)c(N)c3cc2C1 (stereo unspecified) 34.1%, CCNC(=O)c1ccc(CSc2nc3cccnc3n2Cc2ccc(OC)cc2)cc1 1.9%, CCOC(=O)N1CCC2(CC1)OC(=O)C(C)=C2C(=O)NCc1ccc(C)cc1 -12%, Cc1cccc(-c2nc(CN3CCCC(C(=O)NCc4ccc(Cl)cc4)C3)c(C)o2)c1 (stereo unspecified) 3.13%, COC(=O)c1ccc(NC(=O)Cn2c(-c3nonc3N)nc3ccccc32)cc1 3.41%, CCc1nn(-c2ccccc2)c2nc(-c3ccc(O)cc3)c3cc(OC)c(OC)cc3c12 2.14%, CCCc1cnc2c(c1SCC(=O)Nc1c(C)cc(C)cc1C)c(=O)n(C)c(=O)n2C 10.6%, CCN(C(=O)CN1C(=O)COc2ccc(S(=O)(=O)N3CCOCC3)cc21)c1cccc(C)c1 -7.54%, O=C(NCCc1csc(-c2cccc(F)c2)n1)c1ccccc1C(F)(F)F 3.08%, C=CCOc1ccc(C2c3c(oc4ccc(C)cc4c3=O)C(=O)N2CCCN2CCOCC2)cc1 (stereo unspecified) 32.9%, CCOC(=O)c1ccc(NC(=O)CSc2nc(C)c(Cc3ccccc3)c(=O)[nH]2)cc1 -4.22%, Cc1ccc(Cn2ccn(Cc3cccc(C(F)(F)F)c3)c(=O)c2=O)cc1 12.5%, CCc1nn(CC(=O)Nc2ccc(C)cc2C)c(=O)c2cc3sccc3n12 3.58%, Cc1ccc(-n2nc(C)c3c(C)cc(=O)n(CC(=O)NC(C)C)c32)cc1 1.51%

outcome, inactive:
O=C(Nc1ccc(Cl)c(C(F)(F)F)c1)c1ccc2c(c1)CCN2S(=O)(=O)c1ccccc1, O=c1c2cc3c(cc2n(Cc2ccccc2)c(=O)n1Cc1nc(-c2ccccc2)no1)OCO3, CN(C)c1ccc(C(CNC(=O)c2cccc(C(F)(F)F)c2)N2CCCC2)cc1 (stereo unspecified), COc1ccc(Cl)cc1Nc1cc(C)nc2nc(-c3ccccc3C)nn12, CCOC(=O)c1ccc(NS(=O)(=O)c2ccc3c(c2)OCCO3)cc1, CCCC(=O)Nc1cccc(-c2cn3cccnc3n2)c1, CCOC(=O)Cc1ccc(NC(=O)Nc2cc3c(cc2N2CCCCC2)n(C)c(=O)n3C)cc1, Cc1ccc(C)c(CNC(=O)c2ccc3c(c2)nc2n3CCC(C)C2)c1 (stereo unspecified), CCCn1c(=N)c(C(=O)NCc2cccnc2)cc2c(=O)n3ccccc3nc21, COCCCNC(=O)C1CCC(CNS(=O)(=O)c2ccc(OC)cc2)CC1 (stereo unspecified), CCCCOC(=O)c1ccc(NC(=O)CC2NCCNC2=O)cc1 (stereo unspecified), CCOC(=O)c1ccc(NC(=O)c2nc(SC(C)C)ncc2Cl)cc1, O=C(Cn1cnc2onc(-c3ccc(F)cc3)c2c1=O)Nc1cccc(C(F)(F)F)c1, CS(=O)(=O)N(CC(=O)NCCSCc1ccccc1)c1cc(C(F)(F)F)ccc1Cl, COc1ccc(CCCc2nnc(SCC(=O)Nc3ccc(F)cc3)o2)cc1C, CSCCC(NS(=O)(=O)c1ccc2c(c1)oc(=O)n2C)C(=O)NCc1ccccc1 (stereo unspecified), COc1ccc2c(c1)c1c(c(=O)n(Cc3ccccc3)c(=O)n1CC(=O)NCc1ccc(C)cc1)n2C, Cc1cc(C)cc(NC(=O)c2oc3ccc4c(c3c2C)C(=O)CC(C)(C)O4)c1, Cc1nn(CC(=O)N2CCC(C)CC2)c(=O)c2cc3occc3n12, Cc1ccc(-c2ccc(=O)n(CC(=O)Nc3ccc(C(C)C)cc3)n2)cc1, COc1cccc(NC(=O)CSc2nc3c([nH]c4ccccc43)c(=O)n2-c2cccc(Cl)c2)c1, O=C(Nc1ccc(F)c(Cl)c1)C1Cc2ccccc2CN1S(=O)(=O)c1ccc(F)cc1 (stereo unspecified)
